Among all 52,000 compounds or so, about 4,300 (8.3%) were called active. Rule as the data show it: active = survival mostly below about 52% (no sharp cut-off); inactive = mostly above about 56%. Some of the results follow.
These compounds were tested on DeltatarO mutant (assay: S. aureus survival, RN4220 and DeltatarO strains – OD600, teichoic acid synthesis inhibitors, primary screen (AID 463173)). Settings: S. aureus RN4220 wild type/DeltatarO growth, OD600, 18 h, active compounds read low, screened at 18.75 µg/mL (by protocol).
For `COc1ccc(N=Nc2c(N)n[nH]c2N)cc1`, the survival was active: 1%. With `CCn1c(CN2CCOCC2)nc2cc(NC(=O)c3cccc([N+](=O)[O-])c3)ccc21` the survival was inactive: 82%. `COc1ccc(NC(=O)Cn2cc(C(=O)c3ccccc3OC)c(=O)c3ccc(C)nc32)cc1OC` was tested, and the survival was inactive: 78%. For `CCOC(Cn1ccc(=O)[nH]c1=O)OCC`, the survival was inactive: 100%. In the case of `CCCc1nnc(NC(=O)Nc2ccccc2Cl)s1`, the survival is reported as inactive: 108%. `Cc1nc2nc(C)c(NS(=O)(=O)c3ccc(CC(C)C)cc3)c(=O)n2[nH]1` was tested, and the survival was inactive: 89%. With `CCOc1ccc(OCC)c(NC(=O)C2CCCN(S(=O)(=O)c3cc(Br)cc4c3N(C(=O)CC)CC4)C2)c1` (centres undefined) the survival was inactive: 100%. `Cc1nn(C(=O)c2c(F)cccc2F)c(C)c1S(=O)(=O)N1CCCCCC1` was tested, and the survival was inactive: 84%. `S=C(c1ccncc1)N1CCOCC1` was tested, and the survival was inactive: 74%. For `Cc1ccc(C)c(NC(=O)/C(C#N)=C/c2ccc(C(C)C)cc2)c1`, the survival was inactive: 66%. With `COc1ccc(C)cc1NC(=O)c1oc2ccc(S(=O)(=O)N3CCC4(CC3)OCCO4)cc2c1C` the survival was inactive: 68%. For `CCOC(=O)c1ccc(N2CCN(c3cc(C)ccc3C)CC2)c(NC(=O)Nc2ccc(Cl)cc2)c1`, the survival was inactive: 84%. For `CC(C)N(C(=O)Cn1cc(SCC(=O)Nc2ccccc2C(F)(F)F)c2ccccc21)C(C)C`, the survival was inactive: 100%. For `CCOc1ccc(C2C(C(=O)Nc3ccccc3C)=C(C)Nc3nnnn32)cc1` (centres undefined), the survival was inactive: 53%. With `CC(=O)Nc1nnc2n1CCS2` the survival was inactive: 68%. `O=C(CN1C(=O)C2C3C=CC(C3)C2C1=O)NCc1ccco1` (centres undefined) was tested, and the survival was inactive: 70%. With `Cc1ccc(CN2CCC(CNC(=O)Nc3ccc(C)c(C)c3)C2)cc1` (centres undefined) the survival was inactive: 71%. With `COc1ccc(C)cc1NC(=O)c1nnn(-c2c(C)cccc2C)c1C` the survival was inactive: 90%. With `CCOc1cccc(CC(=O)N2CCc3c([nH]c4ccccc34)C2c2ccc(SC)cc2)c1OCC` (centres undefined) the survival was inactive: 107%. For `COc1ccc(N2C(=O)CSC23C(=O)N(Cc2ccc(C)cc2)c2ccccc23)cc1Cl` (centres undefined), the survival was inactive: 124%. In the case of `CCOc1ccc(NC(=O)Cn2nc(Cc3ccncc3)c3ccccc3c2=O)cc1`, the survival is reported as inactive: 91%. For `CCCN(CCC)C(=O)c1nn(C)c2c1CSc1ccc(C)cc1-2`, the survival was inactive: 92%. For `CC(C)Cn1c(=O)c2ccccc2n2c(CCC(=O)Nc3ccc(F)cc3)nnc12`, the survival was inactive: 83%. For `COc1ccccc1/C=C/c1nc(C#N)c(NCC(C)C)o1`, the survival was active: 47%. With `COC(=O)c1[nH]c2ccc(F)cc2c1N` the survival was inactive: 98%. `COc1cc(NC(=O)CN2Cc3ccccc3C2=O)cc(OC)c1OC` was tested, and the survival was inactive: 94%. `Cc1ccc(-c2nc(CCNC(=O)C(=O)Nc3c(C)cccc3C)cs2)cc1` was tested, and the survival was active: 8%. With `CC1=[N+](CCO)c2ccccc2C1(C)C` the survival was inactive: 90%. For `CCOCCn1cnc2sc(C(=O)Nc3ccccc3C(=O)OC)c(C)c2c1=O`, the survival was inactive: 119%. `CCN(CC)CCOC(=O)c1ccc(NC(=O)c2cc3c(s2)-c2ccccc2OC3)cc1` was tested, and the survival was active: -7%. `Cc1nc(-c2ccc(S(=O)(=O)Nc3ccc(Cl)c(C(F)(F)F)c3)cc2)co1` was tested, and the survival was inactive: 95%. `COc1ccc(CNC(=O)c2sc3nc4n(c(=O)c3c2C)CCCCC4)cc1` was tested, and the survival was inactive: 50%. `Clc1cccc(C2=NC(c3cccs3)=Nc3ccc(Br)cc3N2)c1` was tested, and the survival was inactive: 82%. In the case of `CCN(CC)CCOC(=O)c1ccc(Nc2c3c(nc4ccccc24)CCC3)cc1`, the survival is reported as inactive: 94%. With `COc1ccc(CNC(=O)C(CC(C)C)N2Cc3ccccc3C2=O)cc1` (centres undefined) the survival was inactive: 126%. `CCOc1ccccc1CNC(=O)c1cnc2sc(N(CC)CC)nn2c1=O` was tested, and the survival was inactive: 99%. With `CC(C)CN(CCNC(=O)c1cc(-c2cccs2)nc2ccccc12)CC(C)C` the survival was inactive: 52%. For `CCOC(=O)c1cc(-c2ccccc2)n(CCCC(=O)Nc2ccccc2C)c1C`, the survival was inactive: 90%. With `COc1ccc(-n2ccnc(NCc3ccccc3Cl)c2=O)cc1OC` the survival was inactive: 81%. With `COc1ccc(C(=O)c2oc3ccccc3c2NC(=O)c2cccc(OC)c2)cc1` the survival was inactive: 58%. For `CCc1cccc(NC(=O)Cn2c(=O)n3nc(-c4cccc(F)c4)nc3c3ccccc32)c1`, the survival was active: 52%. With `CCOc1cc2[nH]c(=O)n(CCCCC(=O)N3CCN(c4ccccc4OC)CC3)c(=O)c2cc1OCC` the survival was inactive: 74%. `C=CCn1c(SCc2cccnc2)nnc1-c1ccncc1` was tested, and the survival was inactive: 88%. With `Cc1ccccc1C(=O)Nc1sc2c(c1C(=O)N1CCC(C)CC1)CCC(C)C2` (centres undefined) the survival was active: -3%. `CCOC(=O)C1CCCN(c2c(C(=O)c3ccccc3)cnc3ccc(F)cc23)C1` (centres undefined) was tested, and the survival was active: 35%. `Cc1ccccc1CS(=O)(=O)Cc1ccc(C(=O)NCCc2ccc(Cl)cc2)o1` was tested, and the survival was inactive: 76%. With `Cc1cn2c(=O)cc(COC(=O)c3ccc(NC(=O)c4ccccc4C)cc3)nc2s1` the survival was inactive: 101%. With `COc1ccc2c(c1)c1c(c(=O)n(-c3ccc(OC)c(OC)c3)c(=O)n1Cc1ccc(F)cc1)n2C` the survival was inactive: 99%. `CC(CNC(=O)c1ccc(Cn2c(=O)c3cccn3c3cccnc32)cc1)c1ccccc1` (centres undefined) was tested, and the survival was active: 41%. With `COc1ccc(-c2c(C)c3cc(OC(=O)N4CCOCC4)ccc3oc2=O)cc1OC` the survival was active: 47%. For `CNC(=O)C(C)SCc1ccccc1` (centres undefined), the survival was inactive: 77%. `COc1cc(CNC(=O)c2ccc3nc(Cc4ccccc4)oc3c2)cc(OC)c1OC` was tested, and the survival was inactive: 144%. With `COc1cccc(C(=O)CC2(O)C(=O)N(Cc3ccccc3)c3ccccc32)c1` (centres undefined) the survival was inactive: 175%. For `NC(=O)Cn1c(=O)n(CCCCCC(=O)NCc2ccc3c(c2)OCO3)c(=O)c2sccc21`, the survival was inactive: 113%. For `C=CCn1c(SC(C)C)nc2sc3c(c2c1=O)CCCC3`, the survival was inactive: 71%. In the case of `Cc1ccc(-c2nn3c(=O)cc(CN4CCN(C(=O)Nc5cccc(C(F)(F)F)c5)CC4)nc3s2)cc1`, the survival is reported as inactive: 89%. With `Cc1ccc(CCNC(=O)c2cnc3c(-c4ccc(F)cc4)c(C)nn3c2C)cc1` the survival was inactive: 126%. `Clc1ccc(-c2noc3ncnc(NC4CCCCC4)c23)cc1` was tested, and the survival was active: 21%. For `COc1ccc(OC)c(C2CC(=O)c3c([nH]c(C(=O)OCc4ccc(C)cc4)c3C)C2)c1` (centres undefined), the survival was inactive: 73%.

From PubChem BioAssay AID463173 (ICCB-Longwood Screening Facility, Harvard Medical School, 2010)
